Test results as given in PubChem BioAssay AID686979 (National Center for Advancing Translational Sciences (NCATS), 2013).
About 50,000 (12%) of roughly 420,000 compounds were called active. The shares of active, inactive and inconclusive entries below differ from those in the screen. Calls come from the whole dose curve; as a rule, active = well fitted inhibition curve with a large enough effect; inconclusive = small, poorly fitted or top-dose-only effect; inactive = flat fitted curve, though single readings scatter. No potency is given beside an inconclusive call; the fits are too rough.

Test: qHTS for Inhibitors of human tyrosyl-DNA phosphodiesterase 1 (TDP1): qHTS in cells in presence of CPT; note: nearly all actives have a fitted effect of over 55% in size
Conditions: chicken DT40 Tdp1-/-;hTDP1 cells + 20 nM CPT, ATP luminescence, 48 h; activity change, negative = growth inhibition: at 46.2 µM (top of the series) unless noted
Procedure, shortened: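 Cell growth measured by CellTiter-Glo luminescence after a minimum 48 h, 37 C compound exposure with 20 nM CPT in Tdp1-knockout DT40 cells stably expressing hTDP1, seeded 400/well; qHTS titration format.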
% is set by controls: 0 for no effect and ±100 for the full control effect; potency is the fitted concentration of half-maximal effect; tags give direction and shape of the fitted curve.

Row | Structure (SMILES) | Potency | activity change, negative = growth inhibition
1 | Cc1c(C(=O)N2CCN(S(=O)(=O)c3ccc(F)cc3)CC2)oc2ccccc12 | inconclusive [inhibitor, single point] | 
2 | CCCCOc1ccc(C(=O)Nc2ccc(N3CCN(C(C)=O)CC3)cc2)cc1 |  | inactive: -11.4%
3 | Cc1ccc2c(c1)c1c(c(=O)n(-c3ccccc3C)c(=O)n1CC(=O)c1ccc(Cl)cc1)n2C | inconclusive [inhibitor, partial curve] | 
4 | O=C1C=C(c2ccccc2Oc2ccccc2)C[C@@H](c2ccc3c(c2)OCO3)C1 | active: 16.4 µM | 
5 | Cc1ccc(C)c(OCc2cc(C(=O)N3CCC(N4CCCC(O)C4)CC3)no2)c1 (stereo not given) | inconclusive [inhibitor, single point] | 
6 | CC(=O)C[C@H]1c2cc(F)ccc2S(=O)(=O)N1c1ccc(N(C)C)cc1 | active: 14.6 µM | 
7 | COc1cccc(C2=Cc3ccc(F)cc3C(CC(C)=O)N2c2ccc(-c3cc(OC)c(OC)c(OC)c3)cc2)c1 (stereo not given) |  | inactive: -3.04%
8 | C[C@H](NC(=O)c1ccco1)C(=O)NCc1cccs1 |  | inactive: 3.88%
9 | C=CCn1c(=O)/c(=C\c2ccccn2)s/c1=C(/C#N)C(=O)NCC1CCCO1 (stereo not given) |  | inactive: 2.29%
10 | COCCCn1c(=O)/c(=C\c2cccc(OC)c2OC)s/c1=C(/C#N)C(=O)Nc1ccc(C(=O)O)cc1 | inconclusive [inhibitor, single point] | 
11 | COc1ccccc1CNC(=O)[C@H](C)NC(=O)C1CCN(C(=O)[C@H](CCSC)NC(=O)OC(C)(C)C)CC1 |  | inactive: -10.3%
12 | O=[N+]([O-])c1ccc(N2CCC(=NOCc3ccc(Cl)cc3)CC2)cc1 | active: 20.6 µM | 
13 | COc1ccccc1C(=O)NCCC(=O)N(C)CC(=O)Nc1ccc(N2CCOCC2)cc1 |  | inactive: -2.6%
14 | CC1CCN(S(=O)(=O)c2cccc(-c3csc(-c4cccnc4)n3)c2)CC1 | inconclusive [inhibitor, single point] | 
15 | CCCOc1ccc2[nH]cc(C(=O)O)c(=O)c2c1 |  | inactive: -29.7%
16 | CN(C)c1ccc(NC(=O)Cn2nnc3sc4c(c3c2=O)CCC(C(C)(C)C)C4)cc1 (stereo not given) | inconclusive [inhibitor, single point] | 
17 | O=S(=O)(c1ccc2nc(Nc3ccccc3)ccc2c1)N1CCCCC1 | inconclusive [inhibitor, single point] | 
18 | CCOc1ccc(NC(=O)COC(=O)c2c(OC)cccc2OC)cc1 | inconclusive [inhibitor, single point] | 
19 | O=C1COc2ccc(-c3csc(=Nc4ccc(OC(F)F)cc4)n3CC3CCCO3)cc2N1 (stereo not given) | inconclusive [inhibitor, single point] | 
20 | COc1ccc(CCNC(=O)CSc2nc3scc(-c4ccccc4)c3c(=O)[nH]2)cc1 | inconclusive [inhibitor, single point] | 
21 | O=S(=O)(c1ccc(Cl)cc1)c1nnn2c1nc(NC1CCCCC1)c1sccc12 | inconclusive [inhibitor, single point] | 
22 | COc1ccccc1-c1nnc(SCC(=O)NCc2c(C)c(Cl)cc(C(C)C)c2O)o1 | active: 29.1 µM | 
23 | NS(=O)(=O)c1cccc(NC(=O)COC(=O)/C(=C/c2cccs2)c2cccs2)c1 | inconclusive [inhibitor, single point] | 
24 | CN(C)c1ccc(CNC(=O)CN2C(=O)CSc3ccc(S(=O)(=O)N4CCCC4)cc32)cc1 | inconclusive [inhibitor, single point] | 

Row | Structure (SMILES) | Potency | activity change, negative = growth inhibition
25 | Cc1cnc(CNc2ncnc3ccc(-c4cccc(NS(C)(=O)=O)c4)cc23)cn1 | inconclusive [inhibitor, single point] | 
26 | CN1CCCC1CCNc1ccc2sc3ccccc3c(=O)c2c1 (stereo not given) | inconclusive [inhibitor, single point] | 
27 | COc1cc(NC(=O)CSc2nnc3c4ccccc4n(C)c3n2)cc(OC)c1OC |  | inactive: 7.76%
28 | CCOc1cccc(CN2CCC(Oc3ccc(C(=O)N4CCCC4)cc3)CC2)c1 | inconclusive [inhibitor, single point] | 
29 | CC(C)(C)OC(=O)CNC(=O)c1[nH]cnc1C(=O)NC1CCN(C(=O)OC(C)(C)C)CC1 | inconclusive [inhibitor, single point] | 
30 | Cc1cc(-c2ccc3c(c2)COc2c4ccccc4nn2-3)on1 |  | inconclusive: -30.7% [inhibitor]
31 | O=C1c2ccccc2C(=O)N1Cc1ccc2c(c1)OCO2 |  | inactive: 12.6%
32 | COc1ccc(N2CCc3c(C)nc4c(OC)cccc4c32)cc1 | active: 4.61 µM | 
33 | O=C(Nc1ccc2c(c1)OCCO2)C1CCCN(S(=O)(=O)Cc2ccccc2)C1 (stereo not given) | inconclusive [inhibitor, single point] | 
34 | CCOC(=O)C1CCN(C(=O)C(C)Sc2nnc3ccccn23)CC1 (stereo not given) |  | inactive: -20.1%
35 | Cc1ccc(CN2CCC(C3(c4ccccn4)NC(=O)N(CC4CCCO4)C3=O)CC2)cc1C (stereo not given) |  | inactive: 8.78%
36 | Cc1cccc(Nc2nc(N)nc(N)c2N=O)c1 | active: 25.9 µM | 
37 | O=C(CC1C(=O)NC2CCCCC2N1C(=O)c1ccc([N+](=O)[O-])cc1)Nc1ccccc1 (stereo not given) | inconclusive [inhibitor, single point] | 
38 | Cc1cc(NC(=O)CCc2nc3cccnc3n2Cc2cccs2)ccc1Br | active: 16.4 µM | 
39 | CSc1nc(C(=O)N2CCCC(N3CCN(c4ccccc4C)CC3)C2)cs1 (stereo not given) | active: 20.6 µM | 
40 | Cc1ccc(C)c(S(=O)(=O)Nc2cc3c4c(c2)CC(=O)N4CCC3)c1 | inconclusive [inhibitor, single point] | 
41 | CC(C)CN1CCC1(C)C(=O)Nc1ccc(OC(F)F)cc1 (stereo not given) |  | inactive: 0.933%
42 | CCc1nnc(NC(=O)c2ccc(-c3cc(C(F)(F)F)ccc3Cl)o2)s1 | inconclusive [inhibitor, single point] | 
43 | COc1ccc(CN2CCn3ncc(C(=O)Nc4ccccc4)c3C2=O)cc1 | inconclusive [inhibitor, full curve] | 
44 | CN(c1ccccc1)c1cc(Br)nc(Br)c1 |  | inactive: 5.77%
45 | Clc1ccc(SCCCCn2ccnc2)cc1 | inconclusive [inhibitor, single point] | 
46 | Cn1c2c(c(=O)n3ncnc13)CCCC2 |  | inactive: 13.1%
47 | Cc1cccc(C(=O)N/N=C2\CS(=O)(=O)N(C)c3ccsc32)c1 | active: 20.6 µM | 
48 | O=C(Nc1ccccc1)C1CC(O)CN1S(=O)(=O)c1ccc([N+](=O)[O-])cc1 (stereo not given) |  | inactive: -15.3%

Row | Structure (SMILES) | Potency | activity change, negative = growth inhibition
49 | C=CCN1C(=O)/C(=C\c2ccc(Oc3nc(N4CCOCC4)nc(N4CCOCC4)n3)c(OC)c2)SC1=S | inconclusive [inhibitor, single point] | 
50 | COc1ccc(OC)c(Nc2nc(N(C)c3ccccc3)nc(N)c2[N+](=O)[O-])c1 | inconclusive [inhibitor, single point] | 
51 | O=C(C=C(O)c1ccc(Cl)cc1)C(=O)NNC(=O)C(O)(c1ccccc1)c1ccccc1 |  | inactive: 8.34%
52 | Cc1nc2ccc(CN(C)c3ccc(C(=O)N[C@@H](CCC(=O)O)C(=O)O)s3)cc2c(=O)[nH]1 | active: 0.0084 µM | 
53 | COc1cc2c(cc1OC)-c1cc3ccc4c(c3c[n+]1CC2)OCO4 | inconclusive [inhibitor, single point] | 
54 | O=C(COC(=O)C1CCN(c2ccc(C(F)(F)F)cn2)CC1)Nc1ccc(F)cc1[N+](=O)[O-] | inconclusive [inhibitor, single point] | 
55 | CCOc1cc(C(=O)Nc2ccc(NC(=O)c3cc4ccccc4o3)c(OC)c2)cc(OCC)c1OCC | inconclusive [inhibitor, full curve] | 
56 | O=[N+]([O-])c1ccc(SCc2ccncc2)nc1 |  | inactive: -17.1%
57 | COc1ccc(OCC(=O)NNC(=O)C(=O)Nc2cc(OC)ccc2OC)cc1 | inconclusive [inhibitor, single point] | 
58 | O=C(N/C(=C/c1cccc([N+](=O)[O-])c1)C(=O)N1CCOCC1)c1ccc(Br)cc1 |  | inactive: -10.2%
59 | COc1cc(C=O)ccc1OCCSc1ccc(Cl)cc1 |  | inactive: -13.1%
60 | COc1cc(C(=O)Nc2ccc(N3CCN(C(=O)c4ccc(C)cc4)CC3)cc2)cc(OC)c1OC | active: 20.6 µM | 
61 | CCc1ccc(NC(=O)N(Cc2c[nH]c3ccccc23)C2CCCCC2)cc1 | active: 7.31 µM | 
62 | COc1ccccc1CN1C[C@@H]2C[C@@H](c3ccc(C)cc3)N3CCC[C@@]23C1=O |  | inactive: -22.7%
63 | COC(=O)C1C/C(=N\NS(=O)(=O)c2ccc(C)cc2)c2ccsc2C1 (stereo not given) | inconclusive [inhibitor, single point] | 
64 | Cc1ccc(NS(=O)(=O)c2cc(-c3cc(C)no3)ccc2C)c(Cl)c1 | inconclusive [inhibitor, single point] | 
65 | O=[N+]([O-])c1cc(Br)ccc1NS(=O)(=O)c1ccccc1 | inconclusive [inhibitor, single point] | 
66 | Cc1ccc(C(=O)NCC(c2ccco2)N2CCCCC2)s1 (stereo not given) | inconclusive [inhibitor, single point] | 
67 | O=C(NCc1ccccc1)C(c1ccc(F)cc1)N(Cc1cccs1)C(=O)c1cnccn1 (stereo not given) | inconclusive [inhibitor, single point] | 
68 | Clc1cccc(Cc2c(C3CCCCC3)nc3ccc(Br)cn23)c1 | active: 23.1 µM | 
69 | Cc1ccc(C)c(NC(=O)CN(C)C(=O)c2ccc(-c3ccc(Cl)cc3)o2)c1 | inconclusive [inhibitor, single point] | 
70 | CCc1ccc(/C=C2\SC(N3CCOCC3)=NC2=O)cc1 | inconclusive [inhibitor, single point] | 
